Data on 5 molecules can be found in PMC4751553.

B1: Fus2p^458–677 (GFP-tagged N-terminal truncation) (domain or fragment, UniProt Q05670 458-677)
chain: IIDISLRRINAWKKVIECERPSGAFFAHDNLISTMCSSYIDKLHEQKNQVTILKLTELETDVMNPLERIIAHCTTVKSKLKDLQALKKDYMLFLQEKKANVRDIKRDLLGMHFQNLQNQMKRELPVFITLIHDTIECILLNYIKVFLKYLEIIAGGKKYLQKDLENMSLNDSIATGQIKNLDILQCYSKSRYMTKRMVRKDWPFPGDPSGSRVVRKLFEL
B2: Fus2p^415–626 F436A fused to GFP (domain or fragment, UniProt Q05670 415-626)
chain: MINLKMDEETEFFTLADHISKAKKVMKGLLELKKNLLKNDLSGIIDISLRRINAWKKVIECERPSGAFFAHDNLISTMCSSYIDKLHEQKNQVTILKLTELETDVMNPLERIIAHCTTVKSKLKDLQALKKDYMLFLQEKKANVRDIKRDLLGMHFQNLQNQMKRELPVFITLIHDTIECILLNYIKVFLKYLEIIAGGKKYLQKDLENMSL
B3: Fus2p^415–626 F584A fused to GFP (domain or fragment, UniProt Q05670 415-626)
chain: MINLKMDEETEFFTLADHISKFKKVMKGLLELKKNLLKNDLSGIIDISLRRINAWKKVIECERPSGAFFAHDNLISTMCSSYIDKLHEQKNQVTILKLTELETDVMNPLERIIAHCTTVKSKLKDLQALKKDYMLFLQEKKANVRDIKRDLLGMHFQNLQNQMKRELPVAITLIHDTIECILLNYIKVFLKYLEIIAGGKKYLQKDLENMSL
B4: Fus2p^415–626 Y599A fused to GFP (domain or fragment, UniProt Q05670 415-626)
chain: MINLKMDEETEFFTLADHISKFKKVMKGLLELKKNLLKNDLSGIIDISLRRINAWKKVIECERPSGAFFAHDNLISTMCSSYIDKLHEQKNQVTILKLTELETDVMNPLERIIAHCTTVKSKLKDLQALKKDYMLFLQEKKANVRDIKRDLLGMHFQNLQNQMKRELPVFITLIHDTIECILLNAIKVFLKYLEIIAGGKKYLQKDLENMSL
B5: Fus2p-GFP truncated to residue 580 (domain or fragment, UniProt Q05670 1-580)
chain: MFKTSYNLYDLNYPKNDSLTPIRDYKNDYFHKNDDKLPEIVRKPTRKLSKHENKLNDKKFTNKRPASLDLHSIVESLSNKKIYSPINTEIFQNVVRLNLSPQIPNSPHEGCKFYKIVQEFYLSEVEYYNNLLTANNVYRKALNSDPRFKNKLVKLDSSDELLLFGNIDTIASISKILVTAIKDLLLAKQRGKMLDANEWQKIFTKNEVQQQLYSTFDISEAFEQHLLRIKSTYTSYFVSHQKQMELFTTLRMNKNHFFNKWYEYCLKESGCIKLEDILKSPMKRLTQWIDTLETLESCYEDILSPELGLKLSPTRRKYSLFSNKLETEVSEYKSNSMYNFSLTPSEIIQSYDEDQFTHLLKPPDKQNKNICNASRQESNLDNSRVPSLLSGSSSYYSDVSGLEIVTNTSTASAEMINLKMDEETEFFTLADHISKFKKVMKGLLELKKNLLKNDLSGIIDISLRRINAWKKVIECERPSGAFFAHDNLISTMCSSYIDKLHEQKNQVTILKLTELETDVMNPLERIIAHCTTVKSKLKDLQALKKDYMLFLQEKKANVRDIKRDLLGMHFQNLQNQMKRE

No constants are given. Whether binding was seen depends on the method and setting. In cells and extracts the contact can be indirect. Tags and fused reporters may be left off the sequences shown.

The target of this assay is T1, Rvs161p tagged with an internal FLAG tag inserted after amino acid 85 (wild type) (S. cerevisiae) (UniProt P25343).
T1 sequence: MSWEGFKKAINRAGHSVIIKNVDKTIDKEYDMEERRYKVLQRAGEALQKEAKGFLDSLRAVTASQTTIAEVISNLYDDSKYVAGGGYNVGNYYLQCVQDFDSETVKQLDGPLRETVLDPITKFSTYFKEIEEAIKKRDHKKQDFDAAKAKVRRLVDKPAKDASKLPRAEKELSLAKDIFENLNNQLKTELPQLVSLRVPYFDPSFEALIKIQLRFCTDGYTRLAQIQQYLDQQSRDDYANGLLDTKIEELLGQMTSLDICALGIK
As to the kind of experiment: co-IP; lysates of pheromone-induced S. cerevisiae (galactose medium, 10 μg/ml pheromone, 2 hr); Rvs161p-FLAG held on anti-FLAG M2 affinity gel, 1 hr at 4°, 50 mM Tris pH 7.4, 150 mM NaCl, 0.5% Triton X-100; bound Fus2p-GFP detected by western blot with anti-GFP. (In general: Immunoblotting shows a protein as a band on a membrane.)
In the case of B1, the binding entry is on record as “no binding”.

For the molecule B2, the binding result was “no binding”.

For the molecule B3, the binding entry is reported as “no binding”.

For the molecule B4, the binding entry is “no binding”.

Regarding B5, the binding result was “no binding”.
